Article PMC4336329 (PLoS ONE, 2015)
Among all 310,000 compounds or so, about 2,200 (0.71%) showed an effect of 50% or more. The effect is printed as a negative number. The list shows a part of the results.

Target: human ether-à-go-go-related gene (hERG) potassium channel (human, UniProt Q12809)
Assay: primary screen, population patch clamp on CHO cells stably expressing hERG

Chain of human ether-à-go-go-related gene (hERG) potassium channel (Q12809 whole entry, looked up): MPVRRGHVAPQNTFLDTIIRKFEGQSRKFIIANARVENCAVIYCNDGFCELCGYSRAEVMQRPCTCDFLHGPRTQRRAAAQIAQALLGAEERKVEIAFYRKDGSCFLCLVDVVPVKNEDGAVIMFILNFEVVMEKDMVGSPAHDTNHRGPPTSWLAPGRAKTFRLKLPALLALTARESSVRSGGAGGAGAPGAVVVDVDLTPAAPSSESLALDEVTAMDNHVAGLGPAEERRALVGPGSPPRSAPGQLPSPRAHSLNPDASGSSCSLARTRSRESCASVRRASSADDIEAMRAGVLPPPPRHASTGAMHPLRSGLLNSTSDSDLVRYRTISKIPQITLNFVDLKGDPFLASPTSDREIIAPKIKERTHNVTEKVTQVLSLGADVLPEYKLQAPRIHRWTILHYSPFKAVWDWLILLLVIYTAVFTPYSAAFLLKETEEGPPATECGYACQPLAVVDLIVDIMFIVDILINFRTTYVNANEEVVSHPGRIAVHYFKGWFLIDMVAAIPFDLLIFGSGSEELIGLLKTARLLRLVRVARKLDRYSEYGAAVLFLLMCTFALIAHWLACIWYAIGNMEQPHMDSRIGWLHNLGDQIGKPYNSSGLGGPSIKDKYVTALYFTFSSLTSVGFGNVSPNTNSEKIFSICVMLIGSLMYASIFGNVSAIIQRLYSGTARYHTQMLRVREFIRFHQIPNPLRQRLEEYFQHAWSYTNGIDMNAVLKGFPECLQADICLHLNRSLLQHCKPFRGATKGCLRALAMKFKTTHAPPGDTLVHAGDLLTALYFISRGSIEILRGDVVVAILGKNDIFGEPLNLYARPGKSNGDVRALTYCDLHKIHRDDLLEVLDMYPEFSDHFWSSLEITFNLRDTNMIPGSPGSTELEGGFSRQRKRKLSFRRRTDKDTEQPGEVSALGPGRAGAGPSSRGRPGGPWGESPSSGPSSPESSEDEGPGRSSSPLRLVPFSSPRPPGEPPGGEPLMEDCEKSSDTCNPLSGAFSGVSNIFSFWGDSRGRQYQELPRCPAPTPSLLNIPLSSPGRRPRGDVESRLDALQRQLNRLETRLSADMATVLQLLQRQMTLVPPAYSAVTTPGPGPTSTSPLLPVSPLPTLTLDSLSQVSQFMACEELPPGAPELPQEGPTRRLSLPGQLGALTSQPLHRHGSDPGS

Compound	hERG current change (%, negative = inhibition) at 1uM
Cc1cc(C)c2c(-c3ccc(F)cc3)c(C#N)c(=O)n(C)c2n1	16.2%
CCCC(C)C(=O)Nc1ccc(F)c(Cl)c1 (stereo not shown)	-4.1%
COc1ccnc(NCc2cccc(C(F)(F)F)c2)c1C#N	12.1%
COc1cc(-c2cc(C(=O)Nc3ccc(O)cc3)c3ccccc3n2)cc(OC)c1OC	1.69%
COC(=O)C1=C(C(=O)OC)[C@@H]2N(C)c3ccccc3[C@@]23C[C@@H](C(=O)OC)N=C3N1	3.74%
CS(=O)(=O)N1CCCC(C(=O)Nc2ccc(Br)cc2F)C1 (stereo not shown)	9.43%
N#Cc1cccc(NC(=O)COC(=O)Cn2nc(-c3ccccc3)oc2=O)c1	11.6%
COc1cc(NC(=O)CSc2nnc(Cn3nnc4ccccc43)n2C)cc(OC)c1	8.39%
O=C(CNS(=O)(=O)c1ccccc1)Nc1ccc(F)cc1F	-4.93%
Nc1nnc(CCS(=O)(=O)c2ccc(Br)cc2)s1	4.11%
Cc1[nH]c2ccccc2c1C(=O)C(=O)NCCOc1ccccc1	10.9%
Cc1cccc(S(=O)(=O)NCCNS(=O)(=O)c2cccc(C)c2)c1	13.4%
Cc1ccc(C)c(/C=N/Nc2nc3ccccc3c(=O)n2O)c1	6.1%
COc1cccc(NC(=O)CCS(=O)(=O)c2ccc(Br)cc2)c1	13.3%
O=C(CSc1nc2ccccc2c(=O)n1Cc1ccco1)NCc1ccccc1	-0.938%
COc1cc(Br)cc(-c2nc3c(c(=O)[nH]c(=O)n3Cc3ccccc3)n2C)c1O	11.9%
COc1ccc(-c2nsc3c(N4CCN(C(=O)c5ccco5)CC4)ncnc23)cc1	7.36%
CCN(CC)c1ccc2cc(C(N)=O)/c(=N\NC(=O)c3ccncc3)oc2c1	-1.32%
COc1ccc(CC(=O)OCc2nnc(C3COc4ccccc4O3)o2)cc1OC (stereo not shown)	6.32%
COc1cc(OC)c(/C=N/n2c(C)nnc2C)c(OC)c1	6.13%
Cc1noc(C)c1S(=O)(=O)Nc1ccc(C(=O)NC2CCCCC2)cc1	13.2%
CC(=O)Oc1c(C)c(C)c2c(c1C)CC[C@@](C)(CCC[C@H](C)CCC[C@H](C)CCCC(C)C)O2	17.4%
O=C(COC(=O)C1(c2cccc(F)c2)CCCC1)NCc1ccc2c(c1)OCO2	6.8%
Cc1nc2ccn(Cc3ccccc3)c(=O)c2cc1C(=O)N1CCN(c2ccccc2)CC1	-16.5%
CCCOC(=O)C1[C@H]2C(=O)N(Cc3ccco3)C[C@]23C=C[C@H]1O3 (stereo partly shown)	17.7%
O=C(O)CCCCCN1C(=O)C(O)=C(C(=O)/C=C/c2ccccc2)C1c1ccccc1[N+](=O)[O-] (stereo not shown)	11.8%
CCN1CCN(C(c2cc(OC)ccc2OC)c2nnnn2Cc2ccccc2)CC1.Cl (stereo not shown)	-5.39%
Cc1c(Cl)c([N+](=O)[O-])nn1CC(=O)NCc1cccs1	9.33%

Compound	hERG current change (%, negative = inhibition) at 1uM
CCn1cc(C(=O)NCc2ccc(Cl)cc2)c(=O)c2cc(S(=O)(=O)N(C)C)ccc21	10.7%
Nc1c(C(=O)c2ccc(Cl)cc2)oc2ccccc12	18%
Cn1nccc1NC(=O)COCC(=O)O	13.5%
CCCCn1c2nc3ccccc3nc2c2c(=O)n(C(C)CC)cnc21 (stereo not shown)	-3.76%
O=C(Nc1ccccc1N1CCOCC1)c1cccs1	7.08%
COc1ccccc1N=c1oc2c(OC)cccc2cc1C(=O)NCc1ccco1	1.76%
Cc1ccc(C)c(N2CCN(S(=O)(=O)c3ccc4c(c3)CC(=O)N4C)CC2)c1	16%
CC(=O)c1ccc(OC(C)C)c(Cc2c(O)nc(N)[nH]c2=O)c1	9.37%
Cc1c(C(=O)N2CCCCC2)c(S(=O)(=O)N2CCC(C)CC2)c(C)n1C	7.34%
Cc1c(CCC(=O)N[C@@H](CC(C)C)C(=O)O)c(=O)oc2c(C)c3oc4c(c3cc12)CCCC4	6.25%
Cc1ccc(NC(=O)C2CCCN2S(=O)(=O)c2ccc(-c3ccc(=O)[nH]n3)s2)c(C)c1 (stereo not shown)	13%
COc1ccc(-c2cc(=O)[nH]c(=S)[nH]2)cc1	14.1%
Cc1ccccc1NC(=O)c1cccc(C(=O)Nc2ccccc2C)n1	10.2%
CCN(CC)S(=O)(=O)c1ccc(Cc2ncc(C(F)(F)F)cc2Cl)s1	11.1%
O=C(Nc1ccccc1)C(=O)Nc1ccc2c(c1)N(C(=O)C1CC1)CCC2	3.46%
N#Cc1c(NC(=O)Cn2c(=O)oc3ccccc32)oc(-c2ccccc2)c1-c1ccccc1	23.8%
COCCn1c(NCc2ccco2)nc2c1c(=O)[nH]c(=O)n2C	21.7%
CCCCCCC(C)n1[nH]c(=O)c2c(C)cc(C)nc21 (stereo not shown)	-1.41%
CCC(=O)Nc1ccc(C(=O)N/N=C/c2cc(Br)c(OC)cc2OC)cc1	14.4%
CC(C)Oc1ccc(C(CC(=O)NCCCN(C)C)c2ccc(F)cc2)cc1 (stereo not shown)	-11%
CCOc1ccc2ccc(OCC)c(/C=N/n3cnnc3)c2c1	0.916%
O=C(CSCc1ccc(F)cc1)NCc1ccco1	16.4%
O=C(NCC1CCCO1)C(=O)NCC(c1ccco1)N1CCN(c2ccccc2F)CC1 (stereo not shown)	10.8%
CC1(C)CC2CC(C)(CN2S(=O)(=O)c2ccc(N)cc2)C1 (stereo not shown)	-10%
O=C(Nc1ccc(Cl)cc1)NC1CCCCNC1=O (stereo not shown)	8.25%
O=C(O)Cc1c[nH]c2ccccc12	12.3%
COCCOC(=O)C1=C(C)NC(=O)NC1c1c(Cl)nc2c(C)cccn2c1=O (stereo not shown)	16.5%
